Measured values: ChEMBL document CHEMBL4888484, “Replenishing the malaria drug discovery pipeline: Screening and hit evaluation of the MMV Hit Generation Library 1 (HGL1) against asexual blood stage Plasmodium falciparum ,using a nano luciferase reporter read-out” (2022)
The whole screen tested about 4,800 compounds, of which about 420 (8.8%) showed an effect of 50% or more. Some of the results follow.

What follows are compounds tested on Plasmodium falciparum (assay: Confirmatory screen in NF54 nanoGlo assay, in single point, at 2uM, 72h). Details: timepoint 72 hour.
Format: functional, Erythrocyte

Structure (SMILES) | % Inhibition [%]
O=C(Nc1nccs1)C1C(c2ccccc2)C1(Cl)Cl (stereo not given) | -18
O=C(c1cc2c(s1)CCCC2)N1CCC[C@H](c2nnc3ccccn23)C1 | -17
CC(C)(C)C(=O)/C(=N\OC(=O)Nc1ccc(Cl)cc1)n1cncn1 | -6
CCn1c(=O)c(N2CCN(C(=O)Nc3cccc(C)c3C)CC2)nc2ccccc21 | -1
Cc1ccc(S(=O)(=O)Nc2c(S(=O)(=O)c3ccc(C)cc3)c3nc4ccccc4nc3n2CCC(C)C)cc1 | 98
O=S(=O)(c1c[nH]c2cccc(F)c12)N1CC[C@]2(CCOC2)C1 | -18
COc1ccc(S(=O)(=O)N2CCN(S(=O)(=O)c3ccc(OC)cc3)C2)cc1 | -4
Cc1nn2c(-c3ccc(-c4ccccc4)cc3)ccnc2c1Br | 1
C=CCCCNc1ccc(C(N)=O)c(F)c1 | -1
CC(=O)N(CC[C@]1(Cc2ccccc2Cl)CCOC(C)(C)C1)Cc1ccco1 | -7
CC(C)(C)OC(=O)N1CCC[C@H]1C(=O)n1ccnc1 | -2
COc1ccc(-c2cc(C(F)F)nc(N3CCN(Cc4ccccn4)CC3)n2)cc1OC | -7
O=C(Cc1ccc(F)cc1)N[C@H](c1ccccc1)C1CC1 | 4
O=C1c2ccccc2C(=O)N1Cc1cnn(CC(F)F)c1 | 3
O=C(Nc1[nH]c(=O)ncc1F)c1cccc2ccccc12 | 84
CCC(C)(C)NC(=O)c1cn(CC2(O)CCN(Cc3ccccc3)CC2)nn1 | -3
CCNC(=O)c1ccc(-c2nc(CS(=O)(=O)c3ccccc3)c(C)o2)cc1 | -13
O=C1C[C@@H](c2ccc(C(F)(F)F)cc2)c2c(O)nc(N3CCN(CCO)CC3)nc2N1 | -4
Cc1ccc(NC(=O)NC(=O)Cn2ccc(=O)c3sccc32)cc1C | 0
O=C(NCC1CC12CCc1ccccc12)NC1CC2CCC1O2 (stereo not given) | -3
Cc1cc2c(cc1C)N(CC(=O)Nc1ccc(C(F)(F)F)cc1)C(=O)CC(c1cccs1)=N2 | -9
CC1(C)C(c2ccccc2)=NO[C@@H]1N1CCOCC1 | 5
Cc1cccc(N2CCN(C(=O)c3ccc4c(c3)C(=O)N(c3cc(C)on3)C4=O)C[C@@H]2C)c1 | -3
Cc1n[nH]c(CN(C)S(=O)(=O)Cc2cccc(C(F)(F)F)c2)n1 | 2
COc1ccc2c(NC(=O)Cc3c(C)noc3C)n[nH]c2c1 | 0

Structure (SMILES) | % Inhibition [%]
N#Cc1nc2c(C#N)c(N)n(CCc3ccccc3)c2nc1C#N | 87
Cc1cc(NC(=O)c2ccncc2)cc2c1OCCO2 | -15
Cc1ccc(CN2CCN(C[C@@H](O)Cn3c4ccccc4n4c(=O)cc(C)c(C#N)c34)CC2)c(C)c1 | 89
CC(C)(C)OC(=O)N1CCN(C[C@H]2CN(c3ccc(F)cc3)C(=O)O2)CC1 | -11
CC1(C)Oc2ccc(S(=O)(=O)NC3CCCCC3)cc2NC1=O | -8
CC[C@H]1CCCCN1c1ccc2nnnn2n1 | 0
CCOC(=O)C1CCN(C(=O)Nc2ccc(NC(=O)N3CCC(C(=O)OCC)CC3)cc2)CC1 | 0
O=C(OCC(=O)N1CCCc2ccccc21)c1nccc2ccccc12 | 0
O=C1NCCC[C@@H]1Nc1ccc(C(F)(F)F)nn1 | -3
CC(C)c1cc(C(C)C)c(S(=O)(=O)N[C@@H](Cc2ccccc2)c2ccc(-c3ccccc3)cc2)c(C(C)C)c1 | -10
Fc1ccc(Nc2nc3c(s2)CCCC3)cc1 | -17
Cc1ccc(S(=O)(=O)NCC(=O)N2CCC[C@H]2c2ccc3c(c2)OCCCO3)cc1C | -4
COc1cccc(Oc2nc(N3CCN(C)CC3)nc3c2CN(C(=O)Nc2ccccc2)CC3)c1 | 5
CCOCC(=O)Nc1ccc(C(C)=O)c(Cl)c1 | -9
N#Cc1c(CN2CCOCC2)cc(=O)n2c1[nH]c1ccccc12 | -4
O=C1C[C@H](C(=O)NC2(c3cc(C(F)(F)F)ccc3Cl)CC2)CN1 | -2
Cc1oc(C)c(C(=O)N2CCc3cnccc32)c1C | -13
COc1ccc(Nc2nc(C(C(F)(F)F)(C(F)(F)F)C(F)(F)F)nc(C(C(F)(F)F)(C(F)(F)F)C(F)(F)F)n2)cc1 | -4
COc1ccc(C(=O)C[n+]2nc(CNc3ccc(Br)cc3)n3c2CCCCC3)cc1 | 84
Cc1cc2nc(C)c(=O)n(CCC(=O)NCCCN(C)C3CCCCC3)c2cc1C | 0
O=C(c1ccc[n+]([O-])c1)N(Cc1ccccc1)Cc1ccccc1 | 3
CCC1(CC)CCC(NC(=O)[C@@H]2CCCCC(=O)N2)CC1 | -17
COc1cccc(S(=O)(=O)N(C)[C@H]2CCc3n[nH]c(=O)n3CC2)c1 | -4
CCc1c(C(=O)NCc2ccc(CN3CC(C)OC(C)C3)cc2)[nH]c(C)c1C(C)=O (stereo not given) | -10
CC(C)Cc1cc(C(=O)OC2CCCCCC2)[nH]n1 | 1

Structure (SMILES) | % Inhibition [%]
Nc1ccc(Cc2nnc3n2CCC3)cc1 | 2
Cn1c(N2CCN(c3ccccn3)CC2)nc2c1c(=O)n(Cc1ccc(Cl)cc1)c(=O)n2C | 3
Cc1cccc(CNC(=O)NC2CCOC2c2ccc(Cl)cc2)n1 (stereo not given) | -15
CN1CCCN(C(=O)[C@@H]2Cc3ccccc3C(=O)O2)CC1 | -14
COc1ccc(S(=O)(=O)N[C@H]2CO[C@@H](CN3CCC(F)(F)C3)[C@@H]2O)cc1 | -4
CCn1cc(C(=O)O)c(=O)c2cc(F)c(N3CCN(S(=O)(=O)c4ccccc4)CC3)cc21 | -10
Cc1ccc(NC(=O)NCc2ccccn2)nc1 | -15
CC(NCC(O)Cn1c(-c2ccccc2)c(-c2ccccc2)c2ccc3ccccc3c21)c1ccccc1 (stereo not given) | 88
c1ccc(Oc2ccc(-c3csc4nc5ccccc5n34)cc2)cc1 | 4
Cc1ccc(C(=O)N(Cc2cccc(F)c2)c2ccc(CC(=O)N[C@@H](C)c3ccccc3)cc2)cc1 | 81
CCC(CC)C(=O)Nc1cc(C2CC2)nn1-c1nc(-c2ccccc2)cc(=O)[nH]1 | 50
CCc1ccc(NC(=O)Cc2c(C)nc3nc(-c4ccccc4C)nn3c2C)cc1 | 0
O=C(Cn1cccn1)Nc1cccc(S(=O)(=O)N2CCCC2)c1 | -7
N#Cc1cccc(CNCC2(N3CCOCC3)CCCCC2)c1 | 2
Cn1c(-c2ccc3c(c2)OCO3)cnc1NCc1cccc(Cl)c1 | 4
COCc1cnc(NC(=O)NC2(c3ncccn3)CCOCC2)s1 | 1
O=C(Nc1sc2c(c1C(=O)O)CCC2)c1ccsc1 | -3
COc1nc(N)nc(C(Cl)(Cl)Cl)n1 | 0
O=C(Cn1cccn1)N1CC(c2nc(-c3ncccn3)no2)C1 | 5
COc1cc(=O)c(C(=O)N2CCC(C(N)=O)CC2)nn1-c1ccc(F)c(F)c1 | 3
CCCn1nc(-n2cnnc2)c(NS(=O)(=O)c2ccc(Br)cc2)c1C | 2
CC(C#N)CNCCC(C)c1ccccc1 (stereo not given) | 1
O=C(CN1C(=O)COc2cc(Br)ccc21)Nc1cccc2ccccc12 | 1
Cc1ccnc(-c2noc(Cn3c(=O)c(C)cn(C)c3=O)n2)c1 | 9
CCc1cc(CC)c(-c2cc(-c3ccccc3)on2)c(CC)c1-c1cc(-c2ccccc2)on1 | 12

Structure (SMILES) | % Inhibition [%]
CCC1CC(CC(=O)NS(=O)(=O)c2ccnn2C)CCO1 (stereo not given) | -1
Cc1cccc(N(C)C(=O)c2cc(-c3cccc(Cl)c3)[nH]n2)c1 | -4
O=C(c1cc(F)c(F)cc1Cl)N1CCC2CCC(C1)N2 (stereo not given) | -18
CN(Cc1ccc(N2CCOCC2)cc1)S(=O)(=O)c1ccc2c(c1)OCCCO2 | 1
O=C(NCCC(=O)N1CCCCCC1)c1cc(Cl)c2c(c1)OCCCO2 | 2
Cc1ccc(NC(=O)C2C3NC(=O)N(c4ccccc4)C2(C)Oc2ccc(C)cc23)c(C)c1 (stereo not given) | -9
CC(C)Oc1cccnc1C(=O)N(C)c1cnn(C)c1 | -5
O=c1[nH]nc(-c2ccc3ccccc3c2)c2conc12 | 18
COc1cc([C@H]2CC(O)=Nc3c2c(-c2ccccc2)nn3-c2ccccc2)ccc1O | 4
CCN(CCCC(=O)c1ccc(F)cc1)CCc1ccccc1 | -13
CC(=O)Nc1cccc(NC(=O)Cn2c(=O)n(CCc3cccs3)c(=O)c3ccccc32)c1 | 6
C[C@@H](CNS(=O)(=O)c1ccco1)N(C)S(=O)(=O)c1ccco1 | -2
c1ccc(Oc2ccnc(NCC34COCCN3CCOC4)n2)cc1 | -10
Cc1cccc(NC(=O)[C@H]2CCN(c3cn[nH]c(=O)c3)C2)c1 | 2
O=C(Nc1ccccc1)c1cccc(CN2CCN3CCOC[C@@H]3C2)c1 | -5
Cc1cc(C)cc(-n2c(=O)c3sccc3n(CC(=O)N3CCCCC3)c2=O)c1 | -13
COc1ccc(-c2cc(C(=O)N[C@H]3CCN(c4ccc(=O)[nH]n4)C3)c(C)n2C)cc1 | 69
COCc1c(Br)c(C)nc(O)c1C#N | -8
O=C(Nc1ccccc1)c1c([O-])n(-c2ccccc2)n[n+]1C[C@@H](O)CN1CCCCC1 | 2
C[C@H](C(=O)Nc1nccn2ccnc12)c1ccccc1 | -2
N#C[C@@H](C(=O)Nc1cccnc1)c1ccc(F)cn1 | -3
O=C(c1coc(-c2ccccc2)n1)N1CCc2cc(Br)ccc21 | -4
CC(C)[C@H](NC(=O)Nc1cc(Cl)ccc1F)C(N)=O | -9
CCOC(=O)NCC#CCOc1ccccc1C(N)=O | -15
CC1(O)CC2CCC(C1)N2C(=O)c1cc(Br)c2c(c1)OCCO2 (stereo not given) | -10
